# According to PubChem BioAssay AID686970 (National Center for Advancing Translational Sciences (NCATS), 2013):
# Out of some 360,000 compounds screened, about 6,000 (1.7%) were called active. The shares of active, inactive and inconclusive entries below differ from those in the screen. Calls come from the whole dose curve; as a rule, active = well fitted cell-killing curve with a large enough effect; inconclusive = small, poorly fitted or top-dose-only effect, or effect the other way; inactive = flat fitted curve, though single readings scatter. Potencies of inconclusive entries are left out as doubtful fits.
# Assay: qHTS for induction of synthetic lethality in tumor cells producing 2HG: qHTS for the HT-1080-NT fibrosarcoma cell line;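 note: NT is the 2HG producing partner of a matched IDH1 knockdown line; nearly all actives have a fitted effect of over 55% in size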;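 for activity, negative = less viability: 0% = DMSO-treated cells and -100% = media-only wells without cells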
# Conditions: HT-1080-NT fibrosarcoma viability, CellTiter-Glo ATP luminescence, 48 h; activity, negative = less viability: at 46.1 µM (top of the series)
# How it was run: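 Luminescent CellTiter-Glo readout after 48 hours of compound exposure at 37 degrees C defined viability of HT-1080-NT cells. Activity was normalized to DMSO wells and cell-free media wells; concentration-response curves were fitted and assigned curve classes.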
# Potency is the fitted concentration of half-maximal effect; tags give direction and shape of the fitted curve.
SMILES,Potency,"activity, negative = less viability"
Cc1ccc(C(C)C)cc1OCC(=O)Nc1nnc(C2CC2)s1,"inconclusive [cytotoxic, full curve, poor fit]",–
O=c1[nH]c(CN2CC=C(c3ccccc3)CC2)nc2cc(C(F)(F)F)ccc12,–,inactive: -6.64%
CCC1(C)CC(CCNCc2ccc(N(C)C)cc2)(c2ccc(F)cc2)CCO1 (stereo not given),–,inactive: -21.8%
CC(C)COC(=O)c1ccccc1C(=O)OCC(C)C,–,inactive: -12.2%
CC12CCC3c4ccc(OC(=O)N(CCCl)CCCl)cc4CCC3C1CCC2O (stereo not given),"inconclusive [cytotoxic, single point]",–
C[C@H]1CCCC(=O)CCC/C=C/c2cc(O)cc(O)c2C(=O)O1,–,inactive: 0.375%
CCCCCCN=C(CC)c1c(O)n(CCCC)c(=O)[nH]c1=O,"inconclusive [cytotoxic, single point]",–
C/C(=N\Nc1ccccc1)c1c(O)n(Cc2ccccc2)c(=O)[nH]c1=O,–,inconclusive: -23.4% [cytotoxic]
COc1ccc(-n2c(O)c(C=NCc3ccc4c(c3)OCO4)c(=O)[nH]c2=O)cc1,"inconclusive [rising, single point]",–
CC(C)C(NC(=O)C(C(C)C)N(C)C)C(=O)N(C)C(C(=O)N1CCCC1C(=O)N1CCCC1C(=O)NCc1ccccc1)C(C)C (stereo not given),active: 0.206 µM,–
O=c1[nH]c2ccccc2n1C1CCN(C(c2ccnc3ccccc23)c2nnnn2-c2ccc3c(c2)OCCO3)CC1 (stereo not given),"inconclusive [cytotoxic, partial curve]",–
COCCCn1c(N)c(C(=O)Nc2ccccc2)c2nc3ccccc3nc21,"inconclusive [cytotoxic, single point]",–
CC1=C(O)C(=O)C=C2C1=CC=C1C2(C)CCC2(C)C3CC(C)(C(=O)O)CCC3(C)CCC12C (stereo not given),active: 4.61 µM,–
Cc1nc2ccc(Cl)cc2c(=O)n1-c1ccccc1Cl,–,inactive: -15.2%
Clc1cccc(CNCCc2c[nH]c3ccccc23)c1,active: 18.4 µM,–
O=C1NC(=O)C(=Cc2cc(Cl)ccc2OCc2ccc(C(=O)O)cc2)C(=O)N1,"inconclusive [cytotoxic, single point]",–
Fc1cccc(C2NCc3ccccc3-n3cccc32)c1 (stereo not given),–,inactive: -9.88%
CC1OC(OC2C=C3CCC4C(CCC5(C)C(c6ccc(=O)oc6)CCC45O)C3(C)CC2)C(O)C(OC2OC(CO)C(O)C(O)C2O)C1O (stereo not given),active: 0.206 µM,–
C=CCn1c(O)c(C(C)=NCCCn2ccnc2)c(=O)[nH]c1=O,–,inactive: 1.34%
CC(C)n1c(O)c(C2c3cc(Cl)ccc3Oc3[nH]c(=O)n(C(C)C)c(=O)c32)c(=O)[nH]c1=O (stereo not given),active: 5.17 µM,–
